# Whole data set: some 33,000 sequences, median “E-score (-0.5 to 0.5)” near -0.016, cut for the highest 2% near 0.32. The list shows a part of the results.
# Target: T1, Stp1 (UniProt B3LFK1)
# T1 sequence: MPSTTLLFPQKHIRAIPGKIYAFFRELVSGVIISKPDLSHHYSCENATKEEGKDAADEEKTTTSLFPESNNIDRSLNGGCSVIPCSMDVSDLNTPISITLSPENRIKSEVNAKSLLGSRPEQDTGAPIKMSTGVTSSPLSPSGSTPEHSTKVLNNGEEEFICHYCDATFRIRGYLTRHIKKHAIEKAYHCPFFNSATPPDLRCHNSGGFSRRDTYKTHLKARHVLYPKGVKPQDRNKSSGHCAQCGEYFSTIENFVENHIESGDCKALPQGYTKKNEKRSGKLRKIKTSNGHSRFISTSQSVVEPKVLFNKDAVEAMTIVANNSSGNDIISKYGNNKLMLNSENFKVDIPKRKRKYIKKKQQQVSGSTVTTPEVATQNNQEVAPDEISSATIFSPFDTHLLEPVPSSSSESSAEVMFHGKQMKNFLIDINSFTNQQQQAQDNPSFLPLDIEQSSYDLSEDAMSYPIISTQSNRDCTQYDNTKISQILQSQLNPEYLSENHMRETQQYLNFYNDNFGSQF
# Assay: PBM E-score (8-mer binding enrichment) (E-score (-0.5 to 0.5)); higher = stronger / more preferred TF binding; most listed sequences are background and not binding sites
# Conditions: protein concentration: 200 nM; construct: GST-full length
# Procedure, shortened: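 Detection of bound protein used fluorescent anti-GST, with scans normalised by masliner. The proteins were GST-tagged yeast transcription factors applied at about 100-200 nM to universal all-10-mer Agilent arrays made double-stranded by primer extension. Each ungapped eight-base word, pooled with its reverse complement, was scored with an E-score from the Universal PBM Analysis Suite.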
row,Sequence,PBM E-score
1,ATCCATAC,-0.0143
2,GGGAGTAC,-0.2
3,GCCCTGAA,-0.0439
4,TGAACTCA,-0.0569
5,CCTAAAGC,0.00183
6,AATCGCTA,-0.0893
7,AAACTCCC,-0.251
8,AAGATTAG,0.0851
9,GCAGGCCC,-0.362
10,CTTCAACC,0.0869
11,CCCATTCC,-0.342
12,ATATGGAC,-0.0467
13,ACGATGCT,-0.0649
14,AACTAGAA,0.0373
15,GTCAGGAC,-0.109
16,CCTAACCC,-0.24
17,GTGGTCTA,-0.307
18,GCCTTAGC,0.281
19,ATTTTCGA,0.115
20,GATGTCCC,-0.299
21,CAGTTGAC,0.0275
22,CCGCGCCA,0.252
23,GCGTTGAA,0.138
24,AATAGAAC,0.0648
25,CACGGCCC,0.337

row,Sequence,PBM E-score
1,CTTGGGAA,0.103
2,CTAGTAGA,0.0413
3,AGCGCCCG,-0.00709
4,ACACCGTC,-0.075
5,CGGACTGC,-0.0939
6,AATGCATG,0.00781
7,ATTGAGCG,-0.0277
8,CGTAAATA,0.244
9,ATTTTCCG,0.228
10,AATCTTGA,-0.0147
11,ATTCGTTA,0.0278
12,GCCCGGTA,-0.322
13,GGTTTCAA,-0.0223
14,GTCGATCA,-0.196
15,ACTTTCTC,-0.167
16,GGGGTCAA,-0.185
17,AAACGAGA,0.0632
18,AATGCTTA,-0.0581
19,CGCCCGCA,0.128
20,CACGCTAA,0.0887
21,AGCATGCC,0.0256
22,GGAAGTCA,-0.135
23,AGTGCCTG,-0.0958
24,GCCCCCTA,-0.198
25,AGATCGAG,-0.197

row,Sequence,PBM E-score
1,AGGCATGG,0.134
2,ACCCATAA,0.0305
3,GCTGCCCC,-0.0352
4,CAGTTAAC,0.072
5,CTTCCAAG,-0.0826
6,GTTGCATA,0.0182
7,ATCTCGCG,0.145
8,GAGCACAC,-0.317
9,CAACTGGG,-0.215
10,CGAATCTA,0.0157
11,GATCCCCA,0.0723
12,TGGCAGAA,0.221
13,CCCTGTTC,-0.106
14,CCAATCGA,-0.0389
15,GATACTTA,-0.193
16,CACTCAGG,-0.109
17,AACCCACC,-0.0858
18,AACATAAG,0.186
19,GACACCGA,-0.156
20,AGCAGCTA,0.0736
21,ACTGTTTA,-0.00958
22,ATCTACTA,0.136
23,AGTCTCAG,-0.0507
24,ATGTTAAC,0.0197
25,AAGCCATG,-0.0501

row,Sequence,PBM E-score
1,ACCGTGGA,0.0243
2,CAGTAAGA,-0.0015
3,CCGACGAA,0.0519
4,ACTCACGG,0.108
5,ACGTCTAG,0.00558
6,CCTGGCTC,-0.0865
7,GCCTAGGC,0.014
8,AGTGACCG,-0.127
9,GCCTGACC,-0.0717
10,ACCCCCTG,-0.3
11,AGGTGAGC,-0.153
12,AGTGGTGC,0.0413
13,ACCACGCG,0.122
14,ATAGTGGG,-0.133
15,ACTAAACA,0.0434
16,AACCAACA,0.158
17,CGTTTATC,0.121
18,ATCATCCC,-0.156
19,CGTCATTA,-0.0458
20,GTCAACCA,-0.14
21,ATGACGAC,-0.131
22,GTTAGGGA,-0.178
23,CGTGGCAG,0.239
24,CGCGTGGA,-0.0367
25,GTACTTAA,-0.119

row,Sequence,PBM E-score
1,CACAGGTC,-0.22
2,ATAGGCCG,-0.136
3,ATACAAAC,0.144
4,CACGTTCG,-0.00629
5,CTAGGAGA,-0.102
6,AACCGCGT,0.174
7,TTAATAAA,0.204
8,TGACTCCA,-0.321
9,CACGTAGC,-0.158
10,CATGAACC,-0.0272
11,GAATTGGA,0.0415
12,CGTTGCCC,0.0835
13,CCCCTAAG,-0.284
14,CCGATACG,-0.0133
15,ACTCCTGG,-0.188
16,CCGTCAGG,-0.151
17,AAGACTTC,-0.157
18,GACCATGC,0.018
19,GTAATGGA,0.108
20,GAGACCGA,-0.217
21,CAACGTCA,-0.0755
22,TCCAAAAA,0.05
23,AGCCTGCC,-0.163
24,GGCGCCGA,0.421
25,AACGAACA,0.19

row,Sequence,PBM E-score
1,ACCAGACT,-0.238
2,ACAATTAT,0.199
3,ATTTGTGG,0.182
4,ACGAAGTG,0.0266
5,ATCCCAGG,-0.238
6,CCAGTTAC,-0.12
7,TGGCAAAA,0.292
8,CCTAAAAA,0.117
9,CTCGTTCA,-0.0156
10,ATAAGCCG,0.0578
11,CTTAAATC,0.0764
12,TCAAGTAA,0.0823
13,GCGTTCAA,0.112
14,CAGGAGAC,-0.175
15,GCATCCTA,0.0928
16,ACATAGCG,0.0669
17,CTTTGCAC,0.0969
18,AAGAGGTC,-0.213
19,GCCGTTAA,0.168
20,ACAGCCTA,0.0411
21,ATCAACTG,0.0295
22,AGGTCATC,-0.191
23,GCCCCAAC,-0.112
24,GTTCACTA,0.00226
25,CAATTGCG,0.1

row,Sequence,PBM E-score
1,CCCGTCGG,0.103
2,AATGTTCC,-0.155
3,ACCGCACG,0.28
4,ACTCGCAC,-0.0707
5,ATATAGTG,0.151
6,AGTCCGTA,-0.0203
7,GAAGAGCC,0.281
8,CCCCTATC,-0.302
9,CAATGGGA,-0.0885
10,GTTATTGA,0.00688
11,ATGGTATC,0.00249
12,ATGGTGTC,-0.00706
13,ACGATTCC,-0.0968
14,CCTTAGGC,-0.135
15,AGTGTGCG,0.0273
16,AGTATCTA,-0.005
17,ACCCTGAC,-0.0969
18,ATTCGTCA,0.134
19,GGATCTGA,0.0425
20,ATGGGCCG,0.123
21,TTAATTAA,-0.106
22,GTCACTTA,0.0391
